The other results are listed elsewhere or left out.
How the values were obtained:
Assay in all cases: glycan array binding signal (z-score within array); higher = stronger binding
Conditions in all cases: glycan notation: IUPAC condensed, linker removed
[1] = target: Neu5Ac(a2-3)Gal(b1-3)[Fuc(a1-4)]GlcNAc(b1-3)Gal(b1-4)Glc
In short: (§1)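 From the Consortium for Functional Glycomics database, 3228 arrays were curated, keeping only those whose protein sequence was available. Binding is given as a within-array Z-score averaged across arrays sharing a protein sequence and across linkers. Negative Z-scores can be read as non-binding.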

[2] = target: Neu5Ac(a2-3)Gal(b1-3)[Neu5Ac(a2-6)]GalNAc
In short: as §1

[3] = target: Neu5Ac(a2-3)Gal(b1-3)[Neu5Ac(a2-6)]GalNAc(b1-4)Gal(b1-4)Glc
In short: as §1

[4] = target: Neu5Ac(a2-3)Gal(b1-3)[Neu5Ac(a2-6)]GlcNAc(b1-3)Gal(b1-4)Glc
In short: as §1

Neu5Ac(a2-3)Gal(b1-4)Glc = target: Neu5Ac(a2-3)Gal(b1-4)Glc
In short: as §1

[5] = target: Neu5Ac(a2-3)Gal(b1-4)GlcNAc
In short: as §1

[6] = target: Neu5Ac(a2-3)Gal(b1-4)GlcNAc(b1-2)Man(a1-3)[Neu5Ac(a2-3)Gal(b1-4)GlcNAc(b1-2)Man(a1-6)]Man(b1-4)GlcNAc(b1-4)[Fuc(a1-6)]GlcNAc
In short: as §1

[7] = target: Neu5Ac(a2-3)Gal(b1-4)GlcNAc(b1-3)Gal(b1-4)Glc
In short: as §1

[8] = target: Neu5Ac(a2-3)Gal(b1-4)GlcNAc(b1-6)GalNAc(a1-3)Gal(b1-4)Glc
In short: as §1

[9] = target: Neu5Ac(a2-3)Gal(b1-4)GlcNAc6S(b1-3)Gal6S(b1-3)GlcNAc6S
In short: as §1

[10] = target: Neu5Ac(a2-3)Gal(b1-4)[3dFuc(a1-3)]GlcNAc(b1-3)Gal
In short: as §1

[11] = target: Neu5Ac(a2-3)Gal(b1-4)[4dFuc(a1-3)]GlcNAc(b1-3)Gal
In short: as §1

[12] = target: Neu5Ac(a2-3)Gal(b1-4)[6dTal(a1-3)]GlcNAc(b1-3)Gal
In short: as §1

[13] = target: Neu5Ac(a2-3)Gal(b1-4)[Fuc(a1-3)]Glc
In short: as §1

[14] = target: Neu5Ac(a2-3)Gal(b1-4)[Fuc(a1-3)]GlcNAc
In short: as §1

[15] = target: Neu5Ac(a2-3)Gal(b1-4)[Fuc(a1-3)]GlcNAc(b1-3)Gal
In short: as §1

[16] = target: Neu5Ac(a2-3)Gal(b1-4)[Fuc(a1-3)]GlcNAc(b1-3)Gal(b1-4)Glc
In short: as §1

[17] = target: Neu5Ac(a2-3)Gal(b1-4)[Fuc(a1-3)]GlcNAc(b1-3)Gal(b1-4)[Fuc(a1-3)]GlcNAc(b1-3)Gal(b1-4)Glc
In short: as §1

[18] = target: Neu5Ac(a2-3)Gal(b1-4)[Fuc(a1-3)]GlcNAc(b1-4)GalNAc(b1-3)Gal(b1-4)Glc
In short: as §1

[19] = target: Neu5Ac(a2-3)Gal(b1-4)[Fuc(a1-3)]GlcNAc(b1-6)Gal(b1-4)Glc
In short: as §1

[20] = target: Neu5Ac(a2-3)Gal(b1-4)[Fuc(a1-3)]GlcNAc6S(b1-3)Gal(b1-4)Glc
In short: as §1

[21] = target: Neu5Ac(a2-3)Gal(b1-4)[Fuc2Me(a1-3)]GlcNAc(b1-3)Gal
In short: as §1

[22] = target: Neu5Ac(a2-3)Gal(b1-4)[Qui(a1-3)]GlcNAc(b1-3)Gal
In short: as §1

[23] = target: Neu5Ac(a2-3)Gal(b1-4)[Rha(a1-3)]GlcNAc(b1-3)Gal
In short: as §1

Neu5Ac(a2-3)Gal3S = target: Neu5Ac(a2-3)Gal3S
In short: as §1

[24] = target: Neu5Ac(a2-3)Gal6S(b1-4)[Fuc(a1-3)]GlcNAc(b1-3)Gal(b1-4)Glc
In short: as §1

[25] = target: Neu5Ac(a2-3)Gal6S(b1-4)[Fuc(a1-3)]GlcNAc6S(b1-3)Gal(b1-4)Glc
In short: as §1

[26] = target: Neu5Ac(a2-3)GalNAc(b1-4)GlcNAc
In short: as §1

[27] = target: Neu5Ac(a2-3)GalNBz(b1-4)GlcNAc
In short: as §1

[28] = target: Neu5Ac(a2-3)[GalNAc(b1-4)]Gal(b1-3)Gal
In short: as §1

[29] = target: Neu5Ac(a2-3)[GalNAc(b1-4)]Gal(b1-3)GalNAc(b1-4)[Neu5Ac(a2-3)]Gal(b1-4)Glc
In short: as §1

[30] = target: Neu5Ac(a2-3)[GalNAc(b1-4)]Gal(b1-3)Glc
In short: as §1

[31] = target: Neu5Ac(a2-3)[GalNAc(b1-4)]Gal(b1-4)Glc
In short: as §1

[32] = target: Neu5Ac(a2-3)[GalNAc(b1-6)]Gal(b1-4)Glc
In short: as §1

Neu5Ac(a2-6)Gal = target: Neu5Ac(a2-6)Gal
In short: as §1

[33] = target: Neu5Ac(a2-6)Gal(b1-3)GalNAc(b1-4)Gal(b1-4)Glc
In short: as §1

[34] = target: Neu5Ac(a2-6)Gal(b1-3)GlcNAc(b1-3)[Fuc(a1-3)[Gal(b1-4)]GlcNAc(b1-6)]Gal(b1-4)Glc
In short: as §1

[35] = target: Neu5Ac(a2-6)Gal(b1-3)GlcNAc(b1-3)[Gal(b1-4)GlcNAc(b1-6)]Gal(b1-4)Glc
In short: as §1

[36] = target: Neu5Ac(a2-6)Gal(b1-3)[Neu5Ac(a2-6)]GalNAc(b1-4)Gal(b1-4)Glc
In short: as §1

Neu5Ac(a2-6)Gal(b1-4)Glc = target: Neu5Ac(a2-6)Gal(b1-4)Glc
In short: as §1

[37] = target: Neu5Ac(a2-6)Gal(b1-4)GlcNAc
In short: as §1

[38] = target: Neu5Ac(a2-6)Gal(b1-4)GlcNAc(b1-2)Man(a1-3)[Neu5Ac(a2-6)Gal(b1-4)GlcNAc(b1-2)Man(a1-6)]Man(b1-4)GlcNAc(b1-4)GlcNAc
In short: as §1

[39] = target: Neu5Ac(a2-6)Gal(b1-4)GlcNAc(b1-2)Man(a1-3)[Neu5Gc(a2-6)Gal(b1-4)GlcNAc(b1-2)Man(a1-6)]Man(b1-4)GlcNAc(b1-4)GlcNAc
In short: as §1

[40] = target: Neu5Ac(a2-6)Gal(b1-4)GlcNAc(b1-2)[Neu5Ac(a2-3)Gal(b1-4)GlcNAc(b1-4)]Man(a1-3)[Neu5Ac(a2-3)Gal(b1-4)GlcNAc(b1-2)Man(a1-6)]Man(b1-4)GlcNAc(b1-4)GlcNAc
In short: as §1

[41] = target: Neu5Ac(a2-6)Gal(b1-4)GlcNAc(b1-3)Gal(b1-4)Glc
In short: as §1

Measured: glycan array binding signal (z-score)

B1: ZG16p (Homo sapiens), O60844 (protein)
chain: ARSSSYSGEYGGGGGKRFSHSGNQLDGPITALRVRVNTYYIVGLQVRYGKVWSDYVGGRNGDLEEIFLHPGESVIQVSGKYKWYLKKLLFVTDKGRYLSFGKDSGTSFNAVPLHPNTVLRFISGRSGSLIDAIGLHWDVYPSSCSRC
-0.276: Neu5Ac(a2-3)Gal(b1-4)Glc
-0.266: Neu5Ac(a2-6)Gal(b1-4)Glc
-0.288: [27]
-0.328: [1] | [4] | [8] | [9] | [10] | [11] | [12] | [13] | [14] | [15] | [16] | [17] | [18] | [19] | [20] | [21] | [22] | [23] | Neu5Ac(a2-3)Gal3S | [24] | [25] | [26] | [28] | [29] | [30] | [31] | [32] | Neu5Ac(a2-6)Gal | [33] | [34] | [35] | [36] | [39] | [40] | [41]
-0.325: [2]
-0.42: [6] | [38]
-0.317: [5] | [37]
-0.315: [7]
-0.257: [3]
